Binding signal data for 42 sequences are collected here from PMC7819943, “Rice protein-binding microarrays: a tool to detect cis-acting elements near promoter regions in rice”.

Some of the results follow.

The target in the assay is T1, OsWOX13 (Oryza sativa, UniProt Q5QMM3 1-267).
T1 sequence: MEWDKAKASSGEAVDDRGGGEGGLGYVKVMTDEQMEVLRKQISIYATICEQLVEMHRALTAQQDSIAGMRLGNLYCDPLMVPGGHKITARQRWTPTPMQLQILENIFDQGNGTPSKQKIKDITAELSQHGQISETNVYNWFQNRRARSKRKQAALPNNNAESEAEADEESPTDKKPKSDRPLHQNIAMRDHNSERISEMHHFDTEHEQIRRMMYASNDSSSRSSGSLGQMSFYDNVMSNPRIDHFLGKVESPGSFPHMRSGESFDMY
Put plainly: protein-binding microarray (RPBM); PBS, 2% BSA, 51.3 ng/ul salmon testes DNA, 50 uM zinc acetate, 200 nM TF, 25 C, 1 h; high values mean tight binding. The settings on record: protein: recombinant; tags: N-terminal polyhistidine and DsRed monomer fusion (pET32a); label: CyDye5-dUTP incorporated in the synthesized complementary strand; 3' TTTTT single-stranded linker to array surface; dsDNA, one strand shown. The procedure, abridged:
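The binding signal for each feature is its fluorescence intensity in arbitrary units. An Axon 4000B scanner was used to read a custom Agilent array that had been made double-stranded with Cy5-dUTP primer extension, blocked with 2% BSA, incubated at 25 °C for 1 h with 200 nM protein in PBS, 2% BSA, salmon testes DNA and 50 µM zinc acetate, and washed. The protein was an N-terminal polyhistidine–DsRed transcription factor fusion from E. coli BL21-CodonPlus, purified on Ni–NTA.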
On to “GTTAGCTGAGGAGATTGGTGTTAAGATTGCAAACCCATGGCGGAGTCACCTAGTGCAG”, for which the binding signal is 3890 fluorescence intensity (a.u.).
Next, “CAAATTTTACAGAAATTTGGTTACAGACAGATGCTCCACCCGGAGTCACCTAGTGCAG”: 4700 fluorescence intensity (a.u.); “AATAGTTAATACTTAATTAATCGTGCAATAATGCATGTTCCGGAGTCACCTAGTGCAG”: 9820 fluorescence intensity (a.u.); “GATATTAGATTGGCTATAGATGAATTGGAGTTAGTAGTGGCGGAGTCACCTAGTGCAG”: 52700 fluorescence intensity (a.u.).
As for “TTTTAATTGGAGATAGAGCAGATAGTGAGTTGTTAACCCACGGAGTCACCTAGTGCAG”, the binding signal was 30200 fluorescence intensity (a.u.).
Under “CTAATGGACTGGAACTAAACAACCAGGCTGTTGCATTCTCCGGAGTCACCTAGTGCAG” stands 4100 fluorescence intensity (a.u.); under “CCATCCATTCATCCAGTTAATTAATTAGCTAAGCTAGCTTCGGAGTCACCTAGTGCAG”, 17900 fluorescence intensity (a.u.); under “CCTTGACAGCGGTTCTTTAGATTATGGAAAGAAGTTCAACCGGAGTCACCTAGTGCAG”, 12300 fluorescence intensity (a.u.).
Under “ATATATATATATATATATATATATATATATATATGAGGGTCGGAGTCACCTAGTGCAG” stands 28100 fluorescence intensity (a.u.).
Next, “CTATTGATTGTTGGCGAGCATGTTCTTATCCAGTTGACTTCGGAGTCACCTAGTGCAG”: 33100 fluorescence intensity (a.u.); “AAATAATTAATCAATTTTAATACTCCTGCGAATAACCGAACGGAGTCACCTAGTGCAG”: 35700 fluorescence intensity (a.u.); “TTATATTAATTGGCTATTAGATTAGCTATAGATAAATTGGCGGAGTCACCTAGTGCAG”: 60400 fluorescence intensity (a.u.).
As for “CGGTTCCAAATCAATCAAAACCCTAACCCTAACCCTCCCCCGGAGTCACCTAGTGCAG”, the binding signal is 19900 fluorescence intensity (a.u.).
Under “TTAACTTAATCAAAACCAGTCATAAAAGATCTTTAGACGGCGGAGTCACCTAGTGCAG” stands 4360 fluorescence intensity (a.u.).
Next, “CACTCTATTATTGCAATTCACCGGATGAGAAATTCTCCGTCGGAGTCACCTAGTGCAG”: 4530 fluorescence intensity (a.u.); “CACATTATTGATACTAATTTTCCCAAAAGTTTTCGGGCTTCGGAGTCACCTAGTGCAG”: 27000 fluorescence intensity (a.u.).
Next, “TACATATCAATAGTATTAATCAATTAACATTCTATTAGAACGGAGTCACCTAGTGCAG”: 3390 fluorescence intensity (a.u.); “GCTTGTCTCCGTTGATTGGTGGTAGCTTGTGTGATCCACACGGAGTCACCTAGTGCAG”: 21100 fluorescence intensity (a.u.); “CATGAGAAAATGATTAATTAATAAACGATATTAGAACTTGCGGAGTCACCTAGTGCAG”: 18200 fluorescence intensity (a.u.).
Consider “GTGATGTAGCAGTAGTCAATCAACCGAACCTGGCGAGTGGCGGAGTCACCTAGTGCAG”, for which the binding signal was 9180 fluorescence intensity (a.u.).
Under “ATATGCTCCAGAAAATTATCAATTATTTAAAATGTCTTTTCGGAGTCACCTAGTGCAG” stands 5220 fluorescence intensity (a.u.); under “GGATGATGATTACCATGAACACATTCCTCCCGAGCTATTACGGAGTCACCTAGTGCAG”, 23000 fluorescence intensity (a.u.).
Under “TGACAAATTAAGGGACCTTAGATGAACTTATTCCTTTTCTCGGAGTCACCTAGTGCAG” stands 3820 fluorescence intensity (a.u.); under “AATAATTAAAGAGTGTGGTGCATATCAATCCCCTTTAACCCGGAGTCACCTAGTGCAG”, 13200 fluorescence intensity (a.u.); under “ACAAAATAACAACATCAAATTTGTTGAAGTCACATACCCTCGGAGTCACCTAGTGCAG”, 4460 fluorescence intensity (a.u.).
On to “TTTGTACTGATTACTCACTGGATTGGTTTAGTAACAACGTCGGAGTCACCTAGTGCAG”, for which the binding signal was 26800 fluorescence intensity (a.u.).
Under “CACTGACAGCACGTGAGACGTGGCCTGCAAATCGTGCATCCGGAGTCACCTAGTGCAG” stands 7090 fluorescence intensity (a.u.); under “AATAGATTGTTTAGATTTATTTTCTTAGAATAAGTCCTATCGGAGTCACCTAGTGCAG”, 18300 fluorescence intensity (a.u.).
Under “AGAAATAAATCATAAATGTATTAAATGTATCATCAACCTTCGGAGTCACCTAGTGCAG” stands 4800 fluorescence intensity (a.u.); under “GCGAGGCTGATCGGTAGTGATTGATGTCGTAGATGTTATGCGGAGTCACCTAGTGCAG”, 14800 fluorescence intensity (a.u.).
Next, “AAAATATATTCAATTATTGATTTGGCTAAACTAATTTAGTCGGAGTCACCTAGTGCAG”: 24200 fluorescence intensity (a.u.); “TGAGACTGATTGTTCTGCACTGGTGGGTGCCTTGACATCACGGAGTCACCTAGTGCAG”: 23900 fluorescence intensity (a.u.); “GACCTAGTTAGAGATTGATTCTAATTCAGTTAACATGCCACGGAGTCACCTAGTGCAG”: 8160 fluorescence intensity (a.u.).
In the case of “CAAATACTTAATTATTCACCCGCTAATCGCTGCTCTGTTTCGGAGTCACCTAGTGCAG”, the binding signal was 11900 fluorescence intensity (a.u.).
Under “TATGAACAATGAATTAATTAAAGCTTGTTTAGACTGGAGTCGGAGTCACCTAGTGCAG” stands 8460 fluorescence intensity (a.u.); under “TGTTTGCTTGCTTGATTGGTCCCTTGTCTTGTTATTAGTCCGGAGTCACCTAGTGCAG”, 16000 fluorescence intensity (a.u.).
Next, “ATTATACTGGTTTTAGATAATTTGAAGCTAGTAGCTGGCTCGGAGTCACCTAGTGCAG”: 3410 fluorescence intensity (a.u.).
“CGAAGGTCGTGTGATTGAATTCCCTCACCTATACGCATGCCGGAGTCACCTAGTGCAG”: the binding signal was 28200 fluorescence intensity (a.u.).
Next, “TAATTGATAGATCTACTACTACCTTCTCTTCTCCCAGAAACGGAGTCACCTAGTGCAG”: 28600 fluorescence intensity (a.u.); “CAAAATTGGGGAAAATTGACCTACACCTCAATGGAACACACGGAGTCACCTAGTGCAG”: 24500 fluorescence intensity (a.u.); “CATCACCAAAATCTGATTGATTGACATAAGCATTGGAACACGGAGTCACCTAGTGCAG”: 49600 fluorescence intensity (a.u.).
Next, “TGGGGAAAATGTTAATTAGAAATATGAGATTTTGGCCTACCGGAGTCACCTAGTGCAG”: 12900 fluorescence intensity (a.u.).
